Among all 210,000 compounds or so, about 5,900 (2.8%) were called active. The shares of active, inactive and inconclusive entries below differ from those in the screen. Calls come from the whole dose curve; as a rule, active = well fitted activation curve with a large enough effect; inconclusive = small, poorly fitted or top-dose-only effect; inactive = no such curve, though single readings can be large or run the other way. Potencies beside an inconclusive call are fits to weak or partial responses and may not hold up.
assay: qHTS Assay for Enhancers of SMN2 Splice Variant Expression; details: HEK293 SMN2-luciferase splicing reporter, luminescence, 30-36 h; activity change, positive = activation: at 46.1 µM (top of the series); note: nearly all actives have a fitted effect of over 55% in size; for activity change, positive = activation: % of control where 0% means no effect
How it was run: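 HEK293 cells carry an SMN2 minigene-luciferase reporter in which exon 7 inclusion puts luciferase in frame. Cells were seeded at 2000 cells/well, attached for 10-12 hours, then exposed to compounds for 30-36 hours at 37C before ONE-Glo luminescence.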
Potency is the fitted concentration of half-maximal effect; tags give direction and shape of the fitted curve.

| Compound | Potency | activity change, positive = activation |
| --- | --- | --- |
| CCc1ccc2c(COC(=O)c3n[nH]c4ccccc34)cc(=O)oc2c1 | inconclusive: 15.8 µM [activator, single point] |  |
| CCOc1ccc(/C=N/NC(=O)c2[nH]ncc2Br)c(O)c1 | active: 3.55 µM |  |
| Cc1ccc(C)c(NC(=O)c2nn(C)c3c2CS(=O)(=O)c2ccccc2-3)c1 | inactive |  |
| CCc1cccc(CC)c1-n1nnc2c(sc3nc(C)cc(C)c32)c1=O | inactive |  |
| Cc1ccc(-c2nc(C#N)c(NCCCn3ccnc3)o2)cc1 | inconclusive: 20 µM [activator, single point] |  |
| Cc1ccc(Cl)cc1N1CCN(C(=O)c2cn(C)c3ccc(S(=O)(=O)N(C)C4CCCCC4)cc3c2=O)CC1 | inconclusive: 2 µM [activator, partial curve, poor fit] |  |
| S=C(NCCC1=CCCCC1)Nc1ccc(Cl)cc1 | inconclusive: 2.82 µM [activator, full curve] |  |
| O=C(CN1CCN(Cc2ccccc2)CC1)NC(=O)NCc1ccco1 | inactive |  |
| CC(=O)Nc1c(C(=O)O)oc2ccccc12 | inactive |  |
| CCOC(=O)c1c(C)n(-c2ccccc2)c2ccc(OC(=O)c3ccc(OCC)c(OCC)c3)cc12 | inactive |  |
| CCC(N=c1cc(-c2ccc(OC)cc2)oc2ccc(C)cc12)C(=O)O (stereo not given) | inconclusive: 35.5 µM [activator, single point] |  |
| COc1ccc2nc(NC(=O)CCN3C(=S)NC(C)(C)CC3C)sc2c1 (stereo not given) | inconclusive: 0.158 µM [activator, full curve] |  |
| O=C(O)c1ccc(Cl)cc1NC(=O)C1CCCO1 (stereo not given) | inactive |  |
| O=C(CSc1ncn(-c2ccccc2)n1)Nc1nc2c(s1)CCCC2 | inconclusive: 0.355 µM [activator, full curve, poor fit] |  |
| COC(=O)c1cc2n(n1)CCN(Cc1ccc(OC)cc1)C2=O | inconclusive: 0.316 µM [activator, full curve, poor fit] |  |
| COc1cc(OC)nc(NC(=O)CN2CCN(c3ccc(F)cc3)CC2)n1 | inconclusive: 1 µM [activator, partial curve] |  |
| Cc1nn(-c2nc3ccccc3s2)c(N)c1-c1ccccc1 | active: 7.08 µM |  |
| O=C(Cc1cccs1)Nc1cccc(C(=O)Nc2ccco2)c1 | inconclusive: 3.55 µM [activator, single point] |  |
| O=C(Nc1ccc(Cl)c(S(=O)(=O)N2CCOCC2)c1)c1cc(-c2ccccn2)nc2ccccc12 | inactive |  |
| CN(C)c1ccnc(Nc2ccc(O)cc2)c1C#N | inactive |  |
| c1ccc(CSc2nnc(-c3cccnc3)o2)cc1 | inconclusive: 22.4 µM [activator, single point] |  |
| CC(=O)Nc1cccc(-c2csc(Nc3ncccn3)n2)c1 | active: 3.55 µM |  |
| O=C(Nc1cccc(F)c1)c1ccc2c(c1)OCO2 | active: 6.31 µM |  |
| OCCNc1ncnc2c1ncn2[C@@H]1O[C@@H](CO)[C@H](O)[C@@H]1O |  | inactive: 6.54% [at 9.22 µM] |
| O=C(N/N=C/c1cccc(F)c1)c1ccc(Cl)cc1 | active: 15.8 µM |  |

| Compound | Potency | activity change, positive = activation |
| --- | --- | --- |
| CCN1CCCC1CN(Cc1cc2cc(C)ccc2[nH]c1=O)C(=O)Nc1ccccc1OC (stereo not given) | inconclusive: 0.0224 µM [activator, full curve, poor fit] |  |
| CN1CCN(c2ccc(NC(=O)c3ccc4c(c3)OCO4)cc2)CC1 | inconclusive: 35.5 µM [activator, single point] |  |
| Cc1ccc2nc(-c3ccncc3)c(Nc3ccccc3C)n2c1 | active: 11.2 µM |  |
| COc1ccc(NC(=O)CSc2oc(-c3ccc(C)cc3)nc2S(=O)(=O)c2ccc(C)cc2)c(OC)c1 | inactive |  |
| CC1(C)CC(=O)c2sc(NC(=O)c3ccc4ncsc4c3)nc2C1 | active: 11.2 µM |  |
| COc1ccc(C(CC(=O)NCCCN2CCOCC2)NS(=O)(=O)c2ccc(C)cc2)cc1 (stereo not given) | inactive |  |
| Cc1ccc(C)c(N=Nc2nc3ccccc3n2C)c1 | inconclusive: 25.1 µM [activator, partial curve, poor fit] |  |
| COC(=O)c1ccccc1NC(=O)c1cc2nc(-c3ccccc3)cc(-c3ccccc3)n2n1 | inactive |  |
| N=c1c(C(=O)NCc2ccco2)cc2c(=O)n3ccccc3nc2n1Cc1ccccc1 | inconclusive: 0.0045 µM [activator, full curve, poor fit] |  |
| CCOC(=O)C1CCN(C(=O)c2cc3cc4cc(OC)ccc4nc3o2)CC1 | active: 11.2 µM |  |
| CC(C)C(=O)Nc1ccc(NC(=O)c2cc3ccccc3o2)cc1 | inconclusive: 14.1 µM [activator, single point] |  |
| CCN1CCN(Cc2c(O)ccc3c(=O)c(Oc4ccccc4Cl)c(C(F)(F)F)oc23)CC1 | inconclusive: 35.5 µM [activator, single point] |  |
| COC(=O)c1ccc2c(=O)[nH]c(CSc3nc(C)cs3)nc2c1 | inconclusive: 5.01 µM [activator, partial curve, poor fit] |  |
| N#C/C(=C\c1ccc(N2CCOCC2)o1)C(=O)Nc1ccc(O)cc1 | active: 15.8 µM |  |
| CCCCSc1nnc(-c2ccc(C)cc2)n1C | inconclusive: 15.8 µM [activator, single point] |  |
| Cc1cc(C)cc(NC(=O)CCc2nnc3n(CC(C)C)c(=O)c4ccccc4n23)c1 | inactive |  |
| COc1ccc(C(=O)Nc2nc(C)c(C)s2)cc1OC | inconclusive: 1.12 µM [activator, full curve, poor fit] |  |
| Cc1cc(NC(=O)c2ccccc2Cl)no1 | inconclusive: 35.5 µM [activator, single point] |  |
| O=C(NC(=S)Nc1cccc(CO)c1)c1ccc(-c2ccccc2)cc1 | inconclusive: 3.16 µM [activator, partial curve, poor fit] |  |
| NC(=O)CSc1nc(-c2ccccc2Cl)ns1 | inconclusive: 10 µM [activator, partial curve, poor fit] |  |
| CCn1nc(-c2ccccc2)c(-c2ccccc2)c(C(=O)Nc2nc(C)c(C(=O)N(C)C)s2)c1=O | inactive |  |
| N#CC1=C(N)OC(c2ccccc2)=C(C#N)C1c1ccc2c(c1)OCO2 (stereo not given) | inconclusive: 1 µM [activator, full curve, poor fit] |  |
| COc1ccc(NC(=O)CN2CCN(CC(=O)Nc3ccc4c(c3)OCO4)CC2)cc1 | inconclusive: 8.91 µM [activator, partial curve] |  |
| Brc1ccc(CSc2ccc(-c3ccco3)nn2)cc1 | inconclusive: 35.5 µM [activator, single point] |  |
| c1ccc2sc(SCSc3nc4ccccc4s3)nc2c1 |  | inactive: -1.07% [at 9.22 µM] |

| Compound | Potency | activity change, positive = activation |
| --- | --- | --- |
| CCOC(=O)CNC(=O)C(Cc1ccccc1)NS(=O)(=O)c1cccs1 (stereo not given) | inactive |  |
| COc1ccc(C2C(C(=O)N3CCN(c4ccc(OC)cc4)CC3)c3ccccc3C(=O)N2C)cc1 (stereo not given) | inconclusive: 0.0112 µM [activator, full curve, poor fit] |  |
| CCOc1ccc(NC(=O)c2ccccc2OC)cc1 | inconclusive: 15.8 µM [activator, single point] |  |
| COc1ccccc1-c1cc(C(=O)N2CCCCC2)no1 | active: 14.1 µM |  |
| CCOc1cc2sc(N3CCC(C(=O)Nc4ccc(C)cc4)CC3)nc2cc1Br | active: 15.8 µM |  |
| CCOc1ccc(CCNC(=O)Cn2nc(CC)n3c(cc4sc(CC)cc43)c2=O)cc1OCC | inactive |  |
| COc1cc(OC)cc(C(=O)N[C@H](C(=O)OCC(=O)Nc2ccc(C(N)=O)cc2)C(C)C)c1 |  | inconclusive: 39.3% [activator] |
| Cc1cccc2c1-c1sc(C(=O)Nc3nccs3)cc1CO2 | inconclusive: 10 µM [activator, partial curve] |  |
| CCOC(=O)C(=O)Nc1ccccc1C(N)=O | inactive |  |
| Cn1cnnc1SCC(=O)Nc1ccc(OC(F)F)cc1 | inactive |  |
| O=Cc1cn(-c2ccccc2)nc1-c1ccncc1 | inconclusive: 20 µM [activator, single point] |  |
| CC(=O)c1cccc(Nc2nc(-c3cccc([N+](=O)[O-])c3)cs2)c1 | active: 11.2 µM |  |
| COc1ccc(OCC(=O)N/N=C2\CCc3ccccc32)cc1 | inactive |  |
| CCC1Oc2ccc(C)cc2N(CC(=O)NCc2cccs2)C1=O (stereo not given) | inactive |  |
| Cc1ccc(C(=O)NCC(=O)OCc2csc(-c3ccccc3)n2)cc1 | inconclusive: 0.0045 µM [activator, full curve, poor fit] |  |
| Cc1cccc(-n2cnc(C(=O)NC3CCCCCC3)c2)n1 | inconclusive: 14.1 µM [activator, partial curve, poor fit] |  |
| Cc1ccc(CSc2ccc(-c3ccco3)nn2)cc1 | active: 11.2 µM |  |
| Cc1onc(-c2ccccc2)c1C(=O)Nc1nc(-c2ccccc2)cs1 | inconclusive: 28.2 µM [activator, single point] |  |
| C/C(=N\Nc1ccc([N+](=O)[O-])cc1)c1cccc(N)c1 | inconclusive: 17.8 µM [activator, single point] |  |
| Cc1cc(C)c2c(N)c(-c3nc4ccccc4[nH]3)sc2n1 | active: 12.6 µM |  |
| O=C(Cc1cn2ccsc2n1)OCc1nc2ccccc2s1 | inconclusive: 20 µM [activator, single point] |  |
| CN(C)C(=O)c1ccc(Oc2ccc(C(=O)N(C)C)cc2)cc1 | inconclusive: 2.82 µM [activator, single point] |  |
| CCOC(=O)c1ccc(NC(=O)Nc2ncccc2C)cc1 | inconclusive: 12.6 µM [activator, single point] |  |
| COc1ccc(NC(=O)c2ccc(OC(F)F)cc2)cc1Cl | active: 11.2 µM |  |
| O=C(Nc1ccc2oc(-c3cccnc3)nc2c1)c1ccc(Br)o1 | inactive |  |

Source: PubChem BioAssay AID1458 (National Center for Advancing Translational Sciences (NCATS), 2008)
